Source: PubChem BioAssay AID485294 (National Center for Advancing Translational Sciences (NCATS), 2010)
About 150 (0.041%) of roughly 370,000 compounds were called active. This list was built around the results that the source calls inconclusive (neither active nor inactive); the mix of calls is not that of the screen. Calls come from the whole dose curve; as a rule, active = well fitted inhibition curve with a large enough effect; inconclusive = small, poorly fitted or top-dose-only effect; inactive = flat fitted curve, though single readings scatter. Potencies of inconclusive entries are left out as doubtful fits.

Molecular target: Beta-lactamase (Escherichia coli (strain K12)) (UniProt P00811)
Chain of UniProt P00811 (P00811 whole entry, looked up): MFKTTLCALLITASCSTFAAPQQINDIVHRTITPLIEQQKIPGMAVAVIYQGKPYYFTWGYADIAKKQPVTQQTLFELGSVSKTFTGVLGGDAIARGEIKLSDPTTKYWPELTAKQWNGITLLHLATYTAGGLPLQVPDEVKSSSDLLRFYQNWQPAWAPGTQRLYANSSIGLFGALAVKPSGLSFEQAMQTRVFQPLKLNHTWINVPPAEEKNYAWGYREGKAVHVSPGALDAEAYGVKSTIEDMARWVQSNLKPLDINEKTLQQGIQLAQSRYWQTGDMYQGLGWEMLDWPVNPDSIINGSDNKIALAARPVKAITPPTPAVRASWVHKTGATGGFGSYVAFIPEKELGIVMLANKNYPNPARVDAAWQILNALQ
Test: qHTS Inhibitors of AmpC Beta-Lactamase (assay with detergent); note: nearly all actives have a fitted effect of over 25% in size;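 for activity change, negative = inhibition: 0% = no-compound wells and -100% = no-enzyme wells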
Conditions: AmpC hydrolysis of nitrocefin, absorbance 480 nm, 0.01% Triton; activity change, negative = inhibition: at 114 µM (top of the series)
Outline: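 AmpC (5.3 nM in the dispensed reagent) in 20 mM phosphate pH 7.0 with 0.01% (detergent screen) or 0.0001% Triton X-100 was preincubated with compounds for 15 min at room temperature. Nitrocefin was then added from an 800 uM solution, and hydrolysis was followed at 480 nm.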
Potency is the fitted concentration of half-maximal effect; tags give direction and shape of the fitted curve.

`NC(=O)c1cc2cc(Cl)ccc2oc1=O` was tested. Which Potency did it give?
The Potency was inconclusive [inhibitor, full curve].

`Clc1ccc(-c2csc(N/N=C\c3cccnc3)n2)cc1` was tested. Which Potency did it give?
Its Potency is inconclusive [inhibitor, full curve].

`O=C(Cn1cc2c(n1)CCCC2)NC1CCCCCC1` was tested. Which Potency did it give?
Its Potency is inconclusive [inhibitor, full curve, poor fit].

How did the Potency turn out when `CC(=O)Nc1ccc(S(=O)(=O)Nc2cc(S(=O)(=O)N3CCCCC3)ccc2O)cc1` was run?
Its Potency is inconclusive [inhibitor, partial curve, poor fit].

How did the “activity change, negative = inhibition” value turn out when `O=C(c1c[nH]c2ccccc12)C(O)C(c1ccccc1)N1CCOCC1` (centres undefined) was run?
Its value is inactive: -12.1%.

`Cc1ccc(-n2c(SCC(=O)NCc3ccc4c(c3)OCO4)nnc2-c2cccnc2)c(C)c1` was tested. Which Potency did it give?
The Potency was inconclusive [inhibitor, single point].

With `CCCCCOc1ccc(Cl)cc1CN1CCOCC1` as the compound, how does the Potency read?
Its Potency is inconclusive [inhibitor, partial curve].

Which “activity change, negative = inhibition” value does the source give for `O=C(CSc1nnc(Cc2ccsc2)o1)c1ccccc1` here?
The value was inactive: 0.355%.

With `O=C(Nc1ccccc1)c1cccn(Cc2ccccc2)c1=O` as the compound, how does the “activity change, negative = inhibition” value read?
Its value is inactive: -4.93%.

For `CC(C)(C)NC(=O)c1ccc2c(c1)C1C3CCC(C3)C1C(c1ccccc1)N2` (centres undefined), which Potency is on record?
The Potency was inconclusive [inhibitor, single point].

`O=C(Cn1cnc2c(nnn2-c2ccccc2)c1=O)N1CCCc2ccccc21` was tested. Which Potency did it give?
The Potency was inconclusive [inhibitor, full curve, poor fit].

With `CCCCNC(=S)NC(C)(C)CO` as the compound, how does the Potency read?
Its Potency is inconclusive [inhibitor, full curve, poor fit].

`COC(=O)c1ccc(CSc2ccc3nnc(-c4ccccn4)n3n2)o1` was tested. Which Potency did it give?
Its Potency is inconclusive [inhibitor, partial curve].

`C=CCSc1nnc(NC(=O)CSc2nnc(C)s2)s1` was tested. Which Potency did it give?
Its Potency is inconclusive [inhibitor, full curve].

For `Cc1cccc2c1-c1sc(C(=O)N3CCc4ccccc4C3)cc1CO2`, which Potency is on record?
Its Potency is inconclusive [inhibitor, partial curve].

Which Potency does the source give for `CC(C)CN(CCNC(=O)c1cn(C)c2ccc(S(=O)(=O)N3CCCC3)cc2c1=O)CC(C)C` here?
The Potency was “inactive”.

Which Potency does the source give for `COc1cccc(CNC(=O)CCn2c(=O)oc3ccccc32)c1` here?
Its Potency is inconclusive [inhibitor, partial curve].

How did the Potency turn out when `O=C(NCCCn1ccnc1)c1cccc(S(=O)(=O)Nc2ccc(F)cc2)c1` was run?
Its Potency is inconclusive [inhibitor, full curve, poor fit].

Which Potency does the source give for `Cc1cc(C(=O)C(=O)N(C)C)c(C)n1-c1ccc(Cl)cc1` here?
Its Potency is inconclusive [inhibitor, full curve].

`O=C(c1ccccc1)N1N=C(C(F)(F)F)CC1(O)c1ccccc1` (centres undefined) was tested. Which “activity change, negative = inhibition” value did it give?
The value was inactive: 1.76%.

How did the “activity change, negative = inhibition” value turn out when `CC(C)C(=O)Nc1ccc(C(=O)Nc2nnc(C(C)C)s2)cc1` was run?
The value was inactive: 6.64%.

Which Potency does the source give for `CC(=O)c1ccc(OCCCC(=O)OCC(=O)Nc2c(C)nn(-c3ccccc3)c2C)cc1` here?
The Potency was inconclusive [inhibitor, full curve, poor fit].

For `CCCc1cc(C(=O)NC2CCCN(Cc3ccccc3F)C2)no1` (centres undefined), which “activity change, negative = inhibition” value is on record?
The value was inactive: 0.0172%.

`Cc1cc(NC(=O)CSc2nnc(CNC(=O)c3ccc(F)cc3)o2)no1` was tested. Which Potency did it give?
The Potency was inconclusive [inhibitor, single point].

For `CCc1ccccc1NC(=O)Cn1cc2c(n1)CCC(C)C2` (centres undefined), which “activity change, negative = inhibition” value is on record?
Its value is inactive: 8.52%.

`C=CCn1c(NCc2ccco2)nc2ccccc21` was tested. Which Potency did it give?
The Potency was inconclusive [inhibitor, full curve].

With `COC(=O)N/N=C(\C)c1ccc2ccccc2c1OC(F)F` as the compound, how does the Potency read?
The Potency was inconclusive [inhibitor, full curve, poor fit].

With `CC(C)(C)C1CCc2c(C(=O)NNC(=O)/C=C/C(=O)O)csc2C1` (centres undefined) as the compound, how does the Potency read?
Its Potency is inconclusive [inhibitor, partial curve, poor fit].

How did the Potency turn out when `CCOc1ccc(N(C)S(=O)(=O)c2c[nH]c(C(=O)OC)c2)cc1` was run?
Its Potency is inconclusive [inhibitor, full curve, poor fit].

`COc1ccc(OC)c2[nH]c(=O)c(CCNC(=O)c3ccc(S(=O)(=O)N4CCCCC4)cc3)cc12` was tested. Which “activity change, negative = inhibition” value did it give?
Its value is inactive: 0.597%.

How did the Potency turn out when `C/C(CC(=O)Nc1ccc(C)c(Cl)c1)=N\NC(=O)Cc1ccccc1` was run?
Its Potency is inconclusive [inhibitor, partial curve].

Which Potency does the source give for `CC(C)(C)NC(=O)C(c1ccccc1)N(C(=O)c1csnn1)C1CC1` (centres undefined) here?
Its Potency is inconclusive [inhibitor, full curve].

How did the Potency turn out when `O=C(Nc1cccc(C(F)(F)F)c1)C12CC3CC(CC(C3)C1)C2` was run?
Its Potency is inconclusive [inhibitor, partial curve, poor fit].

Which Potency does the source give for `CCOCCCNC(=O)CN1CCN(Cc2ccccc2C)C1=O` here?
Its Potency is inconclusive [inhibitor, full curve, poor fit].

`CC(C)C1Cc2c(sc3ncnc(NN)c23)CO1` (centres undefined) was tested. Which “activity change, negative = inhibition” value did it give?
The value was inactive: -1.6%.

Which “activity change, negative = inhibition” value does the source give for `O=C(OCCCOC(=O)c1ccc(O)cc1)c1ccc(O)cc1` here?
Its value is inactive: -5.28%.

How did the Potency turn out when `CCOC(=O)CCNC(=O)CNC(=O)OCc1ccccc1` was run?
Its Potency is inconclusive [inhibitor, full curve].

How did the Potency turn out when `Cc1ccc(N(CN2C(=O)NC(C)(C)C2=O)CN2C(=O)NC(C)(C)C2=O)cc1` was run?
The Potency was inconclusive [inhibitor, full curve, poor fit].

For `Oc1cccc(Nc2nc(N3CCOCC3)nc(N3CCOCC3)n2)c1`, which Potency is on record?
The Potency was inconclusive [inhibitor, partial curve, poor fit].

`COc1cc(C(=O)O/N=C(\N)c2ccccn2)cc(OC)c1OC` was tested. Which “activity change, negative = inhibition” value did it give?
Its value is inactive: 1.21%.

How did the “activity change, negative = inhibition” value turn out when `O=C(NCCc1ccccc1)c1ccc(Cl)c(S(=O)(=O)N2CCCC2)c1` was run?
The value was inactive: -3.78%.

With `CC1(c2ccccc2)CC(C)(C)N2C(=O)C(=O)c3cccc1c32` (centres undefined) as the compound, how does the Potency read?
Its Potency is inconclusive [inhibitor, single point].

For `Cc1cc(SCC(=O)Nc2ccccc2)nc(C)n1`, which Potency is on record?
The Potency was inconclusive [inhibitor, partial curve, poor fit].

How did the “activity change, negative = inhibition” value turn out when `Cc1ccc2nc(SCC(=O)NCc3ccco3)c(C)cc2c1` was run?
The value was inactive: 4.97%.

How did the Potency turn out when `COc1ccc(/C(O)=C2\C(=O)C(=O)N(CCN(C)C)C2c2cccc(OC)c2OC)cc1Cl` (centres undefined) was run?
Its Potency is inconclusive [inhibitor, partial curve, poor fit].

How did the Potency turn out when `CCN(CC)c1cc(C)c2cc(NC(=O)c3ccc(F)cc3Cl)ccc2n1` was run?
The Potency was inconclusive [inhibitor, partial curve, poor fit].

For `CCOc1ncccc1C(=O)OCc1ccc(C(=O)OC)o1`, which “activity change, negative = inhibition” value is on record?
Its value is inactive: -8.08%.

With `CCOc1ccc(C(NC(C)=O)c2ccc(OC)c(OC)c2)cc1` (centres undefined) as the compound, how does the “activity change, negative = inhibition” value read?
The value was inactive: 0.566%.

How did the Potency turn out when `CCOc1ccccc1C(=O)N1c2ccccc2Sc2ccccc21` was run?
Its Potency is inconclusive [inhibitor, full curve, poor fit].

`CC(Oc1ccc(C(=O)c2ccccc2)cc1)C(=O)Nc1ccc(S(N)(=O)=O)cc1` (centres undefined) was tested. Which Potency did it give?
Its Potency is inconclusive [inhibitor, full curve, poor fit].

`COc1ccc(C(=O)Nc2ccccc2N2CCN(C(=O)c3ccccc3)CC2)cc1Br` was tested. Which “activity change, negative = inhibition” value did it give?
The value was inactive: -10.5%.

How did the “activity change, negative = inhibition” value turn out when `O=C(CC(=O)Nc1ccccc1[N+](=O)[O-])Nc1ccccc1[N+](=O)[O-]` was run?
The value was inactive: -0.418%.

`CCc1c(C)nc(SCCOc2ccc(OC(C)C)cc2)[nH]c1=O` was tested. Which Potency did it give?
Its Potency is inconclusive [inhibitor, full curve, poor fit].

With `CC(=O)Nc1cccc(NC(=O)c2ccccc2OCc2c(C)noc2C)c1` as the compound, how does the Potency read?
The Potency was inconclusive [inhibitor, partial curve, poor fit].

Which Potency does the source give for `Cc1cc(C)cc(NC(=O)c2nccnc2C(=O)O)c1` here?
The Potency was inconclusive [inhibitor, full curve, poor fit].

`Cc1csc2nc(CCNS(=O)(=O)c3ccc(F)cc3)cn12` was tested. Which “activity change, negative = inhibition” value did it give?
Its value is inactive: 4.71%.

How did the “activity change, negative = inhibition” value turn out when `Cc1cc(C(C)(C)C)cc(C)c1COC(=O)CN1C(=O)NC2(CCCC2)C1=O` was run?
The value was inactive: 2.77%.

How did the Potency turn out when `Cc1ccc(N2CCCCn3c2nc2c3c(=O)n(CC(=O)O)c(=O)n2C)cc1` was run?
Its Potency is inconclusive [inhibitor, full curve, poor fit].

For `COc1ccc(/C=C/C(=O)Nc2cccc(S(=O)(=O)NC3=NCCCCC3)c2)cc1OC`, which Potency is on record?
The Potency was inconclusive [inhibitor, full curve, poor fit].

Which Potency does the source give for `CCCCn1c(N)c(N(CCOC)C(=O)COC(=O)COc2cc(C)ccc2Cl)c(=O)[nH]c1=O` here?
The Potency was inconclusive [inhibitor, full curve, poor fit].

With `Clc1ccc(Cc2nnc(-c3cccs3)o2)cc1` as the compound, how does the Potency read?
Its Potency is inconclusive [inhibitor, full curve, poor fit].

How did the Potency turn out when `Cc1noc2ncnc(Oc3ccc(F)cc3)c12` was run?
Its Potency is inconclusive [inhibitor, partial curve, poor fit].

How did the “activity change, negative = inhibition” value turn out when `CCCCn1c(-c2ccccc2)cnc1SCC(=O)NCCc1ccc(OC)c(OC)c1` was run?
Its value is inactive: -4.09%.

How did the Potency turn out when `CC12CCC(C(=O)N3CCN(C(c4ccccc4)c4ccccc4)CC3)(OC1=O)C2(C)C` (centres undefined) was run?
Its Potency is inconclusive [inhibitor, full curve, poor fit].

For `CCOC(=O)c1cnc2c(Cl)cc(Cl)cc2c1NCCCN1CCOCC1`, which Potency is on record?
Its Potency is inconclusive [inhibitor, full curve, poor fit].

How did the Potency turn out when `COc1cccc(N(C(=O)Cn2nnc(-c3cccs3)n2)C(C(=O)NC(C)C)c2ccc(C)o2)c1` (centres undefined) was run?
The Potency was inconclusive [inhibitor, partial curve].

For `CC(NC(=O)CN(C)S(=O)(=O)c1ccc(F)cc1)C1CC2CCC1C2` (centres undefined), which Potency is on record?
The Potency was inconclusive [inhibitor, full curve, poor fit].

`O=C(NC(=S)NCCN1CCOCC1)c1ccc(F)cc1` was tested. Which “activity change, negative = inhibition” value did it give?
The value was inactive: 2.74%.

For `CN(Cc1ccc(OC(F)F)cc1)C(=O)c1ccc(S(=O)(=O)N(C)c2ccccc2)cc1`, which Potency is on record?
Its Potency is inconclusive [inhibitor, full curve, poor fit].
